In article PMC4336329 (PLoS ONE, 2015):
Hit rate of the full screen: of about 310,000 compounds, about 2,200 (0.71%) showed an effect of 50% or more. The effect is printed as a negative number. The list shows a part of the results.

Biological target: human ether-à-go-go-related gene (hERG) potassium channel (human, UniProt Q12809)
Experiment: primary screen, population patch clamp on CHO cells stably expressing hERG

Sequence of human ether-à-go-go-related gene (hERG) potassium channel (Q12809 whole entry, looked up): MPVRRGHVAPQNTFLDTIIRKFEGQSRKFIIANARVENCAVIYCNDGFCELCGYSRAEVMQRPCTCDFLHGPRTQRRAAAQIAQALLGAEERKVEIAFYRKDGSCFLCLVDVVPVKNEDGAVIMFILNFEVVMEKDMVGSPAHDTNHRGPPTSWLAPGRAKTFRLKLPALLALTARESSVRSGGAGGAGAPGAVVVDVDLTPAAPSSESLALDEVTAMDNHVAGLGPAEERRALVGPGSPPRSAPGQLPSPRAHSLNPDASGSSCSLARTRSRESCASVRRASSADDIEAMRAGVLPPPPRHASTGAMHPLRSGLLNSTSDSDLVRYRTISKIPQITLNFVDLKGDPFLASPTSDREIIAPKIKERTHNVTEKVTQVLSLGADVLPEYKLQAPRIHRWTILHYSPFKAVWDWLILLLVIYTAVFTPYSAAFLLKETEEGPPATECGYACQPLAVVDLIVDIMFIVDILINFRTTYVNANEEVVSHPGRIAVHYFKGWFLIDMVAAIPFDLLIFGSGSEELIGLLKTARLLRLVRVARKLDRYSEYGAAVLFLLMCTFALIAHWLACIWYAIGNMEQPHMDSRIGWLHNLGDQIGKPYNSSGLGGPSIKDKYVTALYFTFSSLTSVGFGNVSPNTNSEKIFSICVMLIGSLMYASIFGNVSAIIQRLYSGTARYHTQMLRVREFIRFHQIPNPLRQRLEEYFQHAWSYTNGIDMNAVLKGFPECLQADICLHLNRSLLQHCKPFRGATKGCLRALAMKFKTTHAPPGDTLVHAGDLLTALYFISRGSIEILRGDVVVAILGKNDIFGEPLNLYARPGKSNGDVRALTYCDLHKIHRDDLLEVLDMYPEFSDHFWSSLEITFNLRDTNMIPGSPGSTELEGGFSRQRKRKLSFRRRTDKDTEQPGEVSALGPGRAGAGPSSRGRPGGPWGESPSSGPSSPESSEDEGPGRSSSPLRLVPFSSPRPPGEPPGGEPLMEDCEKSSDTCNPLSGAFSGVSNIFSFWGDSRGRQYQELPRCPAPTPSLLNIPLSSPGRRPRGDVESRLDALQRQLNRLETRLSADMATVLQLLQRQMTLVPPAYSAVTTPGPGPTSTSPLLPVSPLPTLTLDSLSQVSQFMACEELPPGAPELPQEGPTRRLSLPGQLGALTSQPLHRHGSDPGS

Row | Compound | hERG current change (%, negative = inhibition) at 1uM [%]
1 | CCc1n[nH]c(=S)n1/N=C/C(C)=C\c1ccccc1 | 15.4
2 | Cc1cc2ccccc2n1CCC(=O)O | 8.9
3 | CC1=C(OC(=O)c2ccc(Br)cc2)C(C)(C)C(c2ccccc2)OC1=O (stereo not shown) | 12
4 | Fc1ccccc1-c1nc2nc3ccccc3nc2n1CC1CCCO1 (stereo not shown) | 9.13
5 | COc1ccc(-c2cn3c(C)c(C(=O)NCc4ccc5c(c4)OCO5)sc3n2)cc1 | 9.64
6 | COc1ccc(N(C)C(=O)C2CCN(S(=O)(=O)c3cccc4nonc34)CC2)c(OC)c1 | 3.56
7 | CCC(C)Sc1cc(-c2nc3ccc(C)cn3c2NCc2ccccc2)ccc1OC.O=C(O)C(F)(F)F (stereo not shown) | 8.95
8 | O=C1CC(=O)N(Cc2ccco2)C(=S)N1 | 7.25
9 | NC(=O)NOCc1ccc(F)cc1Cl | 15
10 | COc1cccc(CCc2nnc(CCC(=O)NC(C)c3c(C)nn(C)c3C)o2)c1 (stereo not shown) | 13.8
11 | O=C(O)c1ccc(N=NNc2cccc([N+](=O)[O-])c2)cc1 | 18.8
12 | CO[C@H]1[C@@H]2C=CO[C@@H](O[C@H]3O[C@@H](CO)[C@H](O)[C@@H](O)[C@@H]3O)[C@@H]2[C@@]2(CO)O[C@@H]12 | -5.17
13 | COc1ccc(N)cc1-n1cnnn1 | 30.1
14 | CC(=O)N1c2ccc(S(=O)(=O)N(C)Cc3ccco3)cc2CC1C (stereo not shown) | 5.29
15 | Cc1ccc(C(=O)Nc2ccc(C(=O)N/N=C/c3c[nH]c4ccccc34)cc2)cc1 | 2.86
16 | Cc1ccc2c(-c3csc(N)n3)c[nH]c2c1 | 18.9
17 | O=C(NCCNC(=O)c1cnccn1)c1ccc(Cl)c(Cl)c1 | 2.07
18 | COc1ccccc1C(=O)n1nc(-c2ccc(Cl)cc2)nc1N | -0.0851
19 | CN(C)/C=C(\C#N)C(=O)N/N=C/c1ccc(Cl)cc1 | 2.3
20 | CCCn1c(C)cc(C(=O)Cn2nnc3ccccc3c2=O)c1C | 5.87
21 | O=C(Nc1ccc2ccccc2c1)c1ccccc1O | 12
22 | Cn1c(=O)cc(OCC(=O)N2CCC(N3CCCCC3)CC2)c2ccccc21 | 8.88
23 | O=C(CSc1nnc(-c2cccs2)n1-c1ccccc1)NCC1CCCO1 (stereo not shown) | -38.7
24 | CCCCn1c(SCC(=O)NCc2ccco2)nc2ccc(N3CCOCC3)cc2c1=O | 4.91
25 | Cn1c(CNC(=O)OC(C)(C)C)nnc1SCC(=O)N1CCOCC1 | 12.3
